Reference: ChEMBL document CHEMBL1201862, “PubChem BioAssay data set” (2004)

Test system: NCI-H322M
Assay: growth of human tumour cells (NCI), 48 h

| Structure (SMILES) | GI50 |
| --- | --- |
| COc1ccc2[nH]c3c(C)cc([N+](=O)[O-])c(C)c3c2c1 | inactive: 27.5 µM |
| Clc1ccc2c(c1)CC1C[N+]3=C(CCCCC3)C1=C2 (stereo not drawn) | inactive: > 100 µM |
| O=C(CSc1nnc(Cc2ccccc2)o1)Nc1ccccc1Cl | inactive: > 100 µM |
| COc1ccc(C(c2ccc(OC)cc2)N2C(=O)CCC2C(=O)O)cc1 (stereo not drawn) | inactive: > 100 µM |
| CN1C2CC(=O)CC1[C@H](O)[C@@H]2O | inactive: > 100 µM |
| CC(=O)O[C@@H](c1nccn1Cc1ccccc1)[C@H]1OC(C)(C)O[C@@H]1[C@H]1COC(C)(C)O1 | inactive: > 100 µM |
| Cc1ccc(/N=C2N=C(Cl)/C(=C\c3ccco3)N\2)cc1 | inactive: > 100 µM |
| CCOP(=O)(OCC)/C(=C/NC(=S)c1ccncc1)C(=O)OC | inactive: > 100 µM |
| COc1ccccc1/N=N/c1c(-c2ccccc2)nn(C(=O)CC(=O)Nc2ccccc2Cl)c1-c1ccccc1 | inactive: > 100 µM |
| COc1cc2c(cc1OCCN1CCN(CCOc3cc4c(cc3OC)C(=O)N3CCC[C@H]3C=N4)CC1)N=C[C@@H]1CCCN1C2=O | inactive: > 67.5 µM |
| C#CC(O)(c1nc2ccccc2s1)c1nc2ccccc2s1 | inactive: 27.1 µM |
| c1ccc2c(c1)N=C(c1cccc3ccccc13)CC(c1ccc3c(c1)OCO3)S2 (stereo not drawn) | inactive: > 100 µM |
| Cc1cn(C2CC(Br)C(COC(c3ccccc3)(c3ccccc3)c3ccccc3)O2)c(=O)[nH]c1=O (stereo not drawn) | inactive: 14.1 µM |
| COc1cc(OCc2ccc3nc(-c4ccccc4)c(N)nc3c2)cc(OC)c1OC | inactive: 11 µM |
| COc1ccc(/C=N/N=C(\N)NO)c(Cl)c1O | inactive: 10.4 µM |
| CS(=O)(=O)OCCCCOS(=O)(=O)CF | inactive: > 100 µM |
| CCN(CC)/[N+]([O-])=N/OCOC(C)=O | inactive: > 100 µM |
| CC(C)(CN1CCCCC1)C(=O)CC(SCCN)c1ccc(Cl)cc1 (stereo not drawn) | inactive: 1.99 µM |
| CO[C@]12CC(=O)C3(C(C[C@H]4CC5CC=C6C[C@@H](OC(C)=O)CC[C@]6(OC(C)=O)C5C[C@@]43C)C1)C1C[C@H]3[C@@H]4CC=C5C[C@@H](OC(C)=O)CC[C@]5(OC(C)=O)[C@H]4CC[C@]3(C)C12 (stereo partly drawn) | inactive: 38.5 µM |
| COc1ccc(/C(C)=N/NC(N)=S)c(OC)c1 | inactive: > 100 µM |
| O=Cc1cc2c(s1)C(=O)c1sccc1C2=O | inactive: 1.63 µM |
| C/C(CC(=O)Nc1cccc([N+](=O)[O-])c1)=N\NC(=O)C[n+]1ccccc1 | inactive: > 100 µM |
| Nc1ncc(Br)c(NCC2(CO)CCC2)n1 | inactive: > 100 µM |
| O=[N+]([O-])C1CC/C(=N/O)c2nonc21 (stereo not drawn) | inactive: > 10 µM |

| Structure (SMILES) | GI50 |
| --- | --- |
| O=C1/C(=N\O)S(=O)(=O)c2ccccc21 | inactive: > 100 µM |
| CCN(CC)C(=S)SS(=O)(=O)c1ccc(Cl)cc1 | inactive: > 100 µM |
| Fc1ccc(C(OCCN2CCC3CCC(C2)N3CCCc2ccccc2)c2ccc(F)cc2)cc1 (stereo not drawn) | inactive: 10.4 µM |
| O=C(NCCc1n[nH]c2c1C(=O)C=C(Nc1ccccc1)C2=O)OCc1ccccc1 | inactive: > 100 µM |
| Cc1cc(=O)nc(S(=O)(=O)NC(=O)Nc2cccc(Cl)c2)[nH]1 | inactive: > 100 µM |
| COc1nc2c(c(=O)[nH]1)N=C(c1ccccc1)CC(c1ccccc1)N2 (stereo not drawn) | inactive: 83.2 µM |
| CC(=O)OCC(OC(C)=O)C(OC(C)=O)C(OC(C)=O)C(/C=N\Nc1nc2ccccc2c(=O)[nH]1)OC(C)=O (stereo not drawn) | inactive: > 100 µM |
| CCN(CC)CCC(=O)/C=C/c1ccc(C)cc1 | inactive: 15.6 µM |
| O=C(O)CN(c1ccc(F)cc1)S(=O)(=O)c1ccccc1 | inactive: > 100 µM |
| Cn1c(=O)c2c(ncn2CCCCn2ccnc2[N+](=O)[O-])n(C)c1=O | inactive: > 100 µM |
| Cn1cnc([N+](=O)[O-])c1SC1=NCCS1 | inactive: > 100 µM |
| CC(=O)C1=C(N=[N+]=[N-])c2cccc3cccc(c23)C1=O | inactive: 21.3 µM |
| CSc1c(C#N)c(N)nc2c(/N=N\c3ccc(Br)cc3)c(N)nn12 | inactive: 6.78 µM |
| COC(=O)C(C)(C)NC(=O)C(C)(C)NC(=O)C(CC(=O)OC(C)(C)C)NC(=O)OC(C)(C)C (stereo not drawn) (Boc-[ξD](OtBu)-[Aib]-[Aib]-OMe) | inactive: > 100 µM |
| COCOCC/C=C/C=O | inactive: > 100 µM |
| Cn1cc(NC(=O)c2cc(NC(=O)CCCCCCCC(=O)Nc3cc(C(=O)Nc4cc(C(=O)NCCC(=N)N)n(C)c4)n(C)c3)cn2C)cc1C(=O)NCCC(=N)N | inactive: 28.4 µM |
| COc1ccc(/C=C\c2cc(OC)c(OC)c(OC)c2)cc1 | active: 0.000443 µM |
| Nc1n[n+](-c2ccccc2)no1 | inactive: > 100 µM |
| O=C(OCCN1CCCCCC1)C(c1ccsc1)C1CCCCC1 (stereo not drawn) [CETIEDIL CITRATE] | inactive: 20.3 µM |
| COc1ccc(N2C(=O)C3CC(c4ccc(Br)cc4)c4c([nH]c5ccccc45)C3C2=O)cc1 (stereo not drawn) | inactive: 14.1 µM |
| O=C1CSC2(CCN(CCCN3c4ccccc4Sc4ccc(Cl)cc43)CC2)N1 | inactive: 12.4 µM |
| CC(C)OP(=O)(OC(C)C)/C(F)=N/Nc1ccc([N+](=O)[O-])cc1 | inactive: > 100 µM |
| O=C1C2C3C=C4c5ccccc5N(c5ccccc5)C4(C2C(=O)N1c1ccccc1)C1C(=O)N(c2ccccc2)C(=O)C31 (stereo not drawn) | inactive: > 100 µM |
| CC1=NN(C(=O)CSc2nnc(SCC(=O)N3N=C(C)CC3(O)c3ccccc3)s2)C(O)(c2ccccc2)C1 (stereo not drawn) | inactive: 21.3 µM |

| Structure (SMILES) | GI50 |
| --- | --- |
| COc1cccc2c1C(=O)c1ccc3cc(CCl)cc(O)c3c1C2=O | active: 0.457 µM |
| C=CC(Br)(CBr)CCC(Br)C(C)C (stereo not drawn) | inactive: 15.7 µM |
| C[C@]12CCC(=O)C=C1CC[C@@H]1C2CC[C@]2(C)Nc3c(cnn3-c3ccccc3)CC12 (stereo partly drawn) | inactive: > 100 µM |
| O=C(CCCCCCCCC(=O)N1C(=O)CC(=O)N(c2ccc(Cl)cc2)C1=S)N1C(=O)CC(=O)N(c2ccc(Cl)cc2)C1=S | inactive: 38.5 µM |
| O=C(CCc1ccccc1)ON1C(=S)NC(c2ccccc2)(c2ccccc2)C1=S | inactive: 42.6 µM |
| Cc1cn(C2OC(CO[Si](C)(C)C(C)(C)C)C(N(C)O[Si](C)(C)C(C)(C)C)C2[Se]c2ccccc2)c(=O)[nH]c1=O (stereo not drawn) | inactive: 10.6 µM |
| CCCCCCCCCCCCNC(C)=O | inactive: 20.3 µM |
| Cc1cccc(Nc2cn(COCc3ccccc3)c(=O)[nH]c2=O)c1 | inactive: > 100 µM |
| C=C1C(=O)OC2/C=C(\CO)C3OC3C3OC3(C)CC(OC(=O)/C(=C/C)CO)C12 (stereo not drawn) | inactive: > 100 µM |
| CC(C)=c1sc(=C(C)C)c2c1=NC(C)(C)N=2 | inactive: > 100 µM |
| CCOC(=O)C1=C(C)N(c2ccc(OC)cc2)C2(O)C=CC(O)=C3C(=O)c4ccccc4C(=O)C312 (stereo not drawn) | inactive: 17 µM |
| O=C(/C=C/c1ccc2c(c1)OCO2)Cc1nc2ncccc2[nH]c1=O | inactive: > 100 µM |
| CCOC(=O)NC1CC2CCC1(OC)C=C2C (stereo not drawn) | inactive: > 100 µM |
| CCCNC(=O)OCc1c(COC(=O)NCCC)c(-c2ccc(Cl)c(Cl)c2)n2c1CCC2 | inactive: 7.64 µM |
| Oc1cc(-c2ccc(F)cc2)nc2ncccc12 | inactive: 71.6 µM |
| C1=CN2C[n+]3ccc4ccccc4c3N=C2c2ccccc21 | inactive: 7.67 µM |
| NC1=Nc2ccccc2Sc2nccn21 | inactive: 35.6 µM |
| COc1cccc(/C=C2\SC(=S)N(/C=C3\C(=O)Oc4ccccc4C3=O)C2=O)c1O | inactive: 87.9 µM |
| CC(=O)C1=C(C)N(c2ccccc2)C2(O)C3=C(C(=O)c4ccccc4C3=O)C(O)=CC12Cl (stereo not drawn) | inactive: 7.38 µM |
| CCOP(=O)(OCC)C(Nc1ccc(C(=O)O)cc1)c1ccc(C(Nc2ccc(C(=O)O)cc2)P(=O)(OCC)OCC)cc1 (stereo not drawn) | inactive: > 100 µM |
| Cc1nc2sc(C(=O)c3ccc(Cl)cc3)c(N)c2c(-c2ccccc2Cl)c1C(=O)Nc1ccccc1 | inactive: 22.9 µM |
| CC(=O)Oc1ccc(CO)cc1OC(C)=O | inactive: > 100 µM |
| COc1ccc(-c2c(C#N)c(S)n(NS(=O)(=O)c3ccc(C)cc3)c(=O)c2C#N)cc1 | inactive: 69.7 µM |
| CC(C)CC1[C@@H](OCc2ccccc2)COS(=O)(=O)N1Cc1ccccc1 (stereo partly drawn) | inactive: > 100 µM |

| Structure (SMILES) | GI50 |
| --- | --- |
| CCOC(=O)C(=Cc1cc(OC)ccc1OC)C(=O)OCC | inactive: 14.9 µM |
| CCCCCCc1cc(C(=O)Nc2cccc(C(F)(F)F)c2)nc(N)n1 | inactive: > 100 µM |
| CCCCCCCCOCC(COC(=O)CCCCCCC)OC(=O)CCCCCCC (stereo not drawn) | inactive: > 100 µM |
| Cn1ccnc1Sc1ccc(/C=N/NC(=O)c2ccccc2O)cc1[N+](=O)[O-] | inactive: 65.6 µM |
| O=C1c2ccccc2C2=Cc3ccccc3C(O)N12 (stereo not drawn) | inactive: > 100 µM |
| N=c1oc2c(Cl)cc(Cl)cc2cc1C(=O)Nc1cccc2ccccc12 | inactive: 4.71 µM |
| Cc1ccc(Nc2cc(=O)[nH]c(=O)[nH]2)cc1CS | inactive: > 100 µM |
| O=C1Nc2ccccc2/C1=N/Nc1nc(-c2ccc([N+](=O)[O-])cc2)cs1 | inactive: 22.6 µM |
| C#CCOCn1cnc2ncnc(N)c21 | inactive: > 100 µM |
| CCCCCC1=CC(=O)C1(Cl)Cl | inactive: 12.6 µM |
| O=C(CN1CCOCC1)c1ccc2c(c1)oc(=O)n2CCN1CCCC1 | inactive: > 100 µM |
| COc1cc(O)c2c(=O)cc(C3(O)C=CC(=O)C=C3)oc2c1 | inactive: 2.07 µM |
| C#CC(O)/C=C/CCCCCCC#CC/C=C\CC#CCCCCCC/C=C/C(O)C#C (stereo not drawn) | inactive: 5.61 µM |
| COc1cccc2c(=O)c3c(O)c4cc(N(C)C)ccc4c(OC(C)=O)c3oc12 | inactive: 26.4 µM |
| COc1ccc(/C=N/NS(=O)(=O)c2ccc(/C=C3\NC(=O)NC3=O)cc2)cc1 | inactive: 95.5 µM |
| CCC(C)[C@@H](NCc1ccccc1)[C@H](OCc1ccccc1)[C@@H]1COC(C)(C)O1 (stereo partly drawn) | inactive: 25.4 µM |
| COCCOCN(C(=O)C1=CCC2(CC1)OCCO2)c1ccccc1I | inactive: > 50 µM |
| O=[N+]([O-])/C(C(Cl)=C(Cl)Cl)=C1\NCCS1 | inactive: > 100 µM |
| CCOC(=O)c1ncn2c1[nH]c(=O)c1ccccc12 | inactive: > 100 µM |
| CC(C)=CC(=O)C/C(=N\NC(N)=S)C(=O)Nc1ccc(Cl)cc1 | inactive: > 100 µM |
| NC(=O)NO [HYDROXYUREA] | inactive: 2110 µM |

Counter-ions that a name gives are not always drawn.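 Each compound was tested at five concentrations against cells in 96-well plates for 48 hours. GI50 = concentration required for 50% inhibition of growth.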 Active and inactive are the calls of the source. Cut-off read from the data, not from the text of the source: active = GI50 up to about 1.1 µM and inactive = higher. Square brackets hold non-standard residues; d marks the D form. Peptide text beside a SMILES is read from it. * marks the point of attachment. ξ: configuration not given here. ξD = NC(CC(=O)O)C(=O)O; Boc = CC(C)(C)OC(=O)*; Aib = CC(C)(N)C(=O)O; OtBu = CC(C)(C)O*
